Test results taken from patent US8722849B2, “Polypeptides” (Novo Nordisk A/S, priority 2011, dated 2014).
The name of at least one read-out is uncertain. Starred links: 1 amine or outer side, 2 acyl side, 3 side chain; linkers in the order of their positions; H or OH if unused. Positions of bridges follow the written chain, without caps; N, C: chain ends. Residues, ends and D or L forms follow the SMILES beside them. *: point of attachment. C20 diacid = O=C(O)CCCCCCCCCCCCCCCCCCC(=O)*; γGlu = O=C(O)[C@H](CCC(=O)[*:2])N[*:1]

Assay: Assay (III) ThT fibrillation assay for physical stability
Format: physicochemical
Conditions: ThT fibrillation assay
Procedure, shortened: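 Freshly prepared formulations, pH-adjusted, with 1 μM ThT; four or eight replicates incubated at 37 °C under 960 rpm orbital shaking. Fluorescence (ex 444/em 485 nm) read every 20 min; […]. Peptide concentration measured by RP-HPLC before and after the run.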

For CC[C@H](C)[C@H](NC(=O)[C@@H]1CCCN1C(=O)CNC(=O)[C@H](Cc1ccccc1)NC(=O)[C@H](CC(N)=O)NC(=O)[C@H](CC(N)=O)NC(=O)[C@H](CO)NC(=O)[C@H](CO)NC(=O)[C@H](Cc1c[nH]cn1)NC(=O)[C@H](Cc1c[nH]cn1)NC(=O)[C@H](CC(C)C)NC(=O)[C@H](Cc1ccccc1)NC(=O)[C@H](CCC(=O)O)NC(=O)[C@H](C)NC(=O)[C@H](CC(C)C)NC(=O)[C@H](CCCNC(=N)N)NC(=O)[C@H](CCC(N)=O)NC(=O)[C@@H](NC(=O)[C@H](C)NC(=O)[C@@H]1CSSC[C@H](NC(=O)[C@H](CCCCN)NC(=O)CC[C@H](NC(=O)CCCCCCCCCCCCCCCCCCC(=O)O)C(=O)O)C(=O)N[C@@H](CC(N)=O)C(=O)N[C@@H]([C@@H](C)O)C(=O)N[C@@H](C)C(=O)N[C@@H]([C@@H](C)O)C(=O)N1)[C@@H](C)O)C(=O)N[C@@H](CC(C)C)C(=O)N1CCC[C@H]1C(=O)N1CCC[C@H]1C(=O)N[C@H](C(=O)N[C@@H](CC(N)=O)C(=O)N[C@H](C(=O)NCC(=O)N[C@@H](CO)C(=O)N[C@@H](CC(N)=O)C(=O)N[C@H](C(=O)N1CCC[C@H]1C(N)=O)[C@@H](C)O)C(C)C)[C@@H](C)O [Example 52, N-alpha-[(S)-4-Carboxy-4-(19-carboxynonadecanoylamino)butyryl]-[Glu14,His17,Pro37]-pramlintide] ({C20 diacid-γGlu}-KCNTATCATQRLAEFLHHSSNNFGPILPPTNVGSNTP-NH2; disulfide 2-7 (inferred); C-terminus assumed), the “ThT pH 4.0 recovery” value was 92.3% and the “ThT pH 4.0 recovery (%)” value was 92.3%.

With CC[C@H](C)[C@H](NC(=O)[C@@H]1CCCN1C(=O)CNC(=O)[C@H](Cc1ccccc1)NC(=O)[C@H](CC(N)=O)NC(=O)[C@H](CC(N)=O)NC(=O)[C@H](CO)NC(=O)[C@H](CO)NC(=O)[C@H](Cc1c[nH]cn1)NC(=O)[C@H](Cc1c[nH]cn1)NC(=O)[C@H](CC(C)C)NC(=O)[C@H](Cc1ccccc1)NC(=O)[C@H](CCC(=O)O)NC(=O)[C@H](C)NC(=O)[C@H](CC(C)C)NC(=O)[C@H](CCCNC(=N)N)NC(=O)[C@H](CCC(N)=O)NC(=O)[C@@H](NC(=O)[C@H](C)NC(=O)[C@@H]1CSSC[C@H](NC(=O)[C@H](CCCCN)NC(=O)[C@H](CCC(=O)O)NC(=O)CC[C@H](NC(=O)CCCCCCCCCCCCCCCCCCC(=O)O)C(=O)O)C(=O)N[C@@H](CC(N)=O)C(=O)N[C@@H]([C@@H](C)O)C(=O)N[C@@H](C)C(=O)N[C@@H]([C@@H](C)O)C(=O)N1)[C@@H](C)O)C(=O)N[C@@H](CC(C)C)C(=O)N1CCC[C@H]1C(=O)N1CCC[C@H]1C(=O)N[C@H](C(=O)N[C@@H](CC(N)=O)C(=O)N[C@H](C(=O)NCC(=O)N[C@@H](CO)C(=O)N[C@@H](CC(N)=O)C(=O)N[C@H](C(=O)N[C@@H](Cc1ccc(O)cc1)C(N)=O)[C@@H](C)O)C(C)C)[C@@H](C)O [Example 26, N-alpha-[(S)-4-Carboxy-4-(19-carboxynonadecanoylamino)butyryl]-Glu-[Glu14,His17]-pramlintide] ({C20 diacid-γGlu}-EKCNTATCATQRLAEFLHHSSNNFGPILPPTNVGSNTY-NH2; disulfide 3-8 (inferred); C-terminus assumed) the “ThT pH 4.0 recovery (%)” value was 0%.
